From PubChem BioAssay AID1159614 (National Center for Advancing Translational Sciences (NCATS), 2016)
Out of some 45,000 compounds screened, about 65 (0.1%) were called active. Calls come from the whole dose curve; as a rule, active = well fitted activation curve with a large enough effect; inconclusive = small, poorly fitted or top-dose-only effect; inactive = no such curve, though single readings can be large or run the other way. Some of the results follow.

Target: Galactocerebrosidase (Homo sapiens) (UniProt P54803)
Test: A Novel Cell-Based Assay to Identify Small Molecules for B -Galactocerebrosidase; note: 0% is about no effect; nearly all actives have a fitted effect of over 65% in size
Conditions: 145M-Twi-hGALC-G270D cells (Twitcher mouse brain line with human GALC G270D), HMU-beta-Gal fluorescence, 48 h; series mostly up to 57.5 µM; activation: at the top concentration
Outline: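 Fluorescence readout: HMU-β-gal cleavage by mutant GALC (0.1 mM final, citrate/phosphate pH 5.2 with 1 mg/mL taurocholate), stopped with carbonate/bicarbonate plus Triton X-100. Cells: murine Twitcher 145M-Twi expressing human G270D GALC; qHTS for activators.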

UniProt P54803, sequence (P54803 whole entry, looked up): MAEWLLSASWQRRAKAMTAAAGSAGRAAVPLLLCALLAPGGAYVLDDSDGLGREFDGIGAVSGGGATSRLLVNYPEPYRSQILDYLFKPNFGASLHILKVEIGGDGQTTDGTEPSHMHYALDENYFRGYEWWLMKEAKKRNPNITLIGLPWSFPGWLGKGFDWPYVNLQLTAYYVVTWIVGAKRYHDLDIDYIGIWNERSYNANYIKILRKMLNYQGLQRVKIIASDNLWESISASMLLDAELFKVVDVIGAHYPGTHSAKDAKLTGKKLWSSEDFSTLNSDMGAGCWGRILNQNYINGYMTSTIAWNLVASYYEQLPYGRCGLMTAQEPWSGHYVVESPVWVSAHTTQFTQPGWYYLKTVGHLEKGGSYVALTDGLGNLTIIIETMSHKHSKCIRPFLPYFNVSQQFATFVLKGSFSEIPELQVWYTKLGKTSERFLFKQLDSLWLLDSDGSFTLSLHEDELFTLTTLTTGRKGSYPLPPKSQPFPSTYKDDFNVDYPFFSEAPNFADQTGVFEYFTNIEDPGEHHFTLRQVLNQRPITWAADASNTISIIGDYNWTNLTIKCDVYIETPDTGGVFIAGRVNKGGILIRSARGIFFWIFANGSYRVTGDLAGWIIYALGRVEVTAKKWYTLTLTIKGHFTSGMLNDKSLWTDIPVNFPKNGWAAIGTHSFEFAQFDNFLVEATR

activation, inactive:
CCOc1ccc(S(=O)(=O)N(CC(=O)NCCSc2ccc(C)cc2)c2ccccc2)cc1 -8.53%
Cc1ccc(NC(=O)CSc2nc(=O)n(Cc3ccco3)c3c2CCC3)cc1F 5.39%
Cn1c(=O)c(=O)n(C)c2cc(N3CCCC3)c(NC(=O)c3ccccc3F)cc21 -6.95%
O=C(Nc1sc2c(c1C(=O)Nc1cccc(Cl)c1)CCCC2)c1cccs1 -6.63%
CCn1nc(-c2ccccc2)c(-c2ccccc2)c(C(=O)Nc2nc(C)c(C(C)=O)s2)c1=O 1.31%
CCC(=O)N1CCc2cc(CNC(=O)c3ccc(OC)cc3)ccc21 -8.84%
COc1ccc(-c2nc(CN3CCC(C(=O)NCCc4ccccc4)CC3)c(C)o2)cc1OC -8.4%
CCCCn1cc(S(=O)(=O)c2ccc(C)c(C)c2)c(=O)c2cc(F)c(N(CC)CC)cc21 -7.15%
Cc1ccc(NC(=O)c2cc(S(=O)(=O)NC3CCCCC3)ccc2F)cc1Cl -13.1%
COC(=O)c1ccccc1NC(=O)c1cc(CN2CCCC2)on1 -17.5%
Cc1ccc2c(c1)-c1onc(C(=O)N3CCN(c4cc(Cl)ccc4C)CC3)c1CO2 -8.98%
CCOc1ccc(-c2nnc(SCC(=O)Nc3ccc(C)cc3Cl)o2)cc1 -14.8%
CCC(=O)N1CCc2cc(CNC(=O)Cc3ccc(F)cc3)ccc21 -14.1%
CC1Cc2ccccc2N1S(=O)(=O)c1nnc(NC(=O)c2cccc(F)c2)s1 (stereo not given) -12.1%
CC(=O)c1ccc(N2CCN(S(=O)(=O)c3cc(-c4noc(C)n4)ccc3C)CC2)cc1 -0.913%
Cc1ccc(Cn2c(CNC(=O)Cc3cccc(C)c3)nc3cccnc32)cc1 -7.68%
COc1ccc(CNC(=O)Cn2c(=O)ccc3cc(S(=O)(=O)N4CCCC4)ccc32)cc1 -5.29%
Cc1nn(S(=O)(=O)c2ccc(C(C)(C)C)cc2)c(C)c1S(=O)(=O)N1CCC(C)CC1 -14.7%
Cc1c(C(=O)N2CCC(C)CC2)c(S(=O)(=O)Nc2cccc(C(F)(F)F)c2)c(C)n1C -5.9%
CCOC(=O)c1c(NC(=O)COc2ccc(C)cc2C(C)(C)C)sc2c1CCC(C)C2 (stereo not given) -4.04%
COc1ccc(OC)c(CCNC(=O)c2cnn(-c3ccc(C)cc3C)c2C2CCN(C(=O)OC(C)(C)C)CC2)c1 -8.48%
CC(C)N(Cc1ccccc1)C(=O)C1CCCN(c2ncnc3onc(-c4ccc(F)cc4)c23)C1 (stereo not given) -9.78%
COCC(=O)Nc1cccc(-c2nc3cccnc3s2)c1 0.828%
COc1ccccc1CNC(=O)c1cnc(SC)nc1C -7.05%
COc1ccc2[nH]cc(CCNC(=O)c3cnn(-c4ccc(C)cc4)c3C3CCN(C(=O)OC(C)(C)C)CC3)c2c1 -17.7%
CC(=O)Nc1ccc(NC(=O)C2(c3cccs3)CCOCC2)cc1 6.1%
COCCN1C(=O)c2oc3ccc(C)cc3c(=O)c2C12C(=O)N(C)c1ccccc12 (stereo not given) -4.58%
O=C(Nc1cc(-c2nc3cc(Cl)ccc3o2)ccc1Cl)c1cc([N+](=O)[O-])ccc1N1CCOCC1 2.7%
Cc1cc2n(n1)CCC(=O)N2Cc1ccc(C(=O)Nc2ccc(F)cc2F)cc1 -1.24%
CCOC(=O)c1ccc(NC(=O)CC2Nc3ccccc3NC2=O)cc1 (stereo not given) -6.5%
CCOC(=O)c1ccc(N2C(=O)c3[nH]nc(-c4ccc(OCC)cc4)c3C2c2cccs2)cc1 (stereo not given) 0.901%
Cc1cc(-c2ccc(S(=O)(=O)N3CCN(c4ccc(Cl)cc4)CC3)s2)on1 -8.14%
COc1ccc(-c2nc3scc(CCNC(=O)c4cccc(Br)c4)n3n2)cc1 -13.9%
COc1ccc(NC(=O)c2sc3nc4c(c(-c5ccc(OC)cc5)c3c2N)C(=O)CC(C)(C)C4)cc1 -6.82%
O=C(c1ccccc1Cl)N1CCCCC1CCN1CCOCC1 (stereo not given) -2.79%
CCOc1cccc2c1Oc1nc(-c3ccccc3)nc(SCC(=O)Nc3ccc(F)cc3)c1C2 -16%
Cc1ccc(-c2nnc(Nc3ccc(F)cc3)c3ccccc23)cc1S(=O)(=O)N1CCN(C)CC1 -17.6%
Cc1ccc(CNCc2cccn2-c2nnc(N3CCCC3)s2)cc1 -18.7%
CCC(C(=O)NC1CCC(C)CC1)n1nc(C)c2sc3ccccc3c2c1=O (stereo not given) -4.97%
CC(C)c1ccc(NC(=O)CSc2nc3ccccc3nc2Cc2ccccc2)cc1 -11.5%
COc1ccccc1CNC(=O)C1CCN(S(=O)(=O)c2ccc3c(c2)CCCN3C(C)=O)CC1 -18.9%
COc1cccc(N2CCN(C(=O)CCCCCn3c(=O)[nH]c4ccccc4c3=O)CC2)c1 -8.95%
CC1CCn2c(nc3cc(C(=O)NCc4ccc(OC(C)C)cc4)ccc32)C1 (stereo not given) -6.1%
Cc1ccc(S(=O)(=O)N(C)Cc2nc(-c3ccccc3)oc2C)cc1 -8.76%
COc1ccc(Cn2ccc3nc(C)c(C(=O)N4CCN(c5ccc(OC)cc5)CC4)cc3c2=O)cc1 -23.8%
CCOc1ccccc1NC(=O)Cn1nnc(C(=O)NCc2ccc(F)cc2)c1N -11.5%
CN(C)CCNC(=O)C(=O)NCC(c1cccnc1)N1CCN(c2ccc(F)cc2)CC1 (stereo not given) -13.6%
CCc1nc2nc(C)c(NS(=O)(=O)c3ccc(C)cc3)c(=O)n2[nH]1 1.39%
CCCCCCCCCCCCCCCCC(C(=O)O)C(O)(CC(=O)O)C(=O)O (stereo not given) 0.0215%
COc1ccc(C(=O)NCc2ccc3c(c2)CCN3C(=O)c2ccc(C)cc2)cc1 -13.2%
COc1ccc(OC)c(NC(=O)c2cc(C3CC3)nc3c2c(C)nn3-c2ccc(C)cc2)c1 -15.3%
COc1ccc(-c2c(C)nn3c(C(F)(F)F)cc(-c4ccccc4)nc23)cc1 -11.6%
O=C(NCc1ccco1)c1ccc2c(c1)N(Cc1c(F)cccc1Cl)C(=O)c1ccccc1S2 -13.5%
O=C(Cn1cc(SCc2ccccc2F)c2ccccc21)N1CCCCC1 -5.78%
Cc1cc(C)cc(NC(=O)Cc2c(C(=O)O)c(C)cn2C)c1 -1%
O=C(CSc1nc2c([nH]c3ccccc32)c(=O)n1-c1cccc(C(F)(F)F)c1)N1CCc2ccccc21 -23.7%
CCc1cc2c(cc(C(=O)OC)n2Cc2nc(-c3ccc(C)cc3)oc2C)s1 -14%
CCOc1ccc(N(CC)C(=O)c2nn(-c3ccc(OC)cc3)c(=O)c3c2c2ccccc2n3C)cc1 -9.78%
CCOc1ccc(-n2c(=O)c3c4c(sc3n(CC(=O)NC(C)CC)c2=O)CCCC4)cc1 (stereo not given) -15.9%
Cc1ccc(CNC(=O)C2CCN(Cc3nc(-c4cccc(Br)c4)oc3C)CC2)cc1 -11.2%
